Tested on: sunflower hybrid H2 (L3 × L4, A122T)
Assay: Greenhouse whole-plant response to imazapyr
Assay type: in vivo
Conditions: 14 DAT

CC(C)C1(C)N=C(c2ncccc2C(=O)O)NC1=O (stereo not drawn) [imazapyr]
87.0%: plant height, % of untreated (5x (400 g ai/ha))
0.5: Phytotoxicity Index (0-9) (0.5x (40 g ai/ha)) | Phytotoxicity Index (0-9) (1x (80 g ai/ha)) | Phytotoxicity Index (0-9) (2x (160 g ai/ha)) | Phytotoxicity Index (0-9) (3x (240 g ai/ha)) | Phytotoxicity Index (0-9) (4x (320 g ai/ha)) | Phytotoxicity Index (0-9) (5x (400 g ai/ha)) | Phytotoxicity Index (0-9) (6x (480 g ai/ha))
100%: biomass accumulation, % of untreated (0.5x (40 g ai/ha))
